{"source": "PubChem BioAssay (NCATS)", "key": {"[1]": {"experiment": "qHTS for differential inhibitors of proliferation of Plasmodium falciparum line 7G8 (AID 1815);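 also: parasite growth measured after three days of incubation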; also: potency is read from the fitted curve at half-maximal effect;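 as to activity change, negative = inhibition: plate controls were vehicle wells for no effect and reference inhibitor wells for full effect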"}, "[2]": {"experiment": "qHTS for differential inhibitors of proliferation of Plasmodium falciparum line GB4 (AID 1816); also: potency is read from the fitted curve at half-maximal effect;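 as to activity change, negative = inhibition: 0% = vehicle DMSO and -100% = reference inhibitor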", "settings": "Potency: Plasmodium falciparum GB4 proliferation inhibition"}, "[3]": {"experiment": "qHTS for differential inhibitors of proliferation of Plasmodium falciparum line 3D7 (AID 1876); also: potency is read from the fitted curve at half-maximal effect"}, "[4]": {"experiment": "qHTS for differential inhibitors of proliferation of Plasmodium falciparum line D10 (AID 1877);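 also: potency is read from the fitted curve at half-maximal effect; parasites grown with compound for 72 h before DNA staining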"}, "[5]": {"experiment": "qHTS for differential inhibitors of proliferation of Plasmodium falciparum line Dd2 (AID 1882); also: potency is read from the fitted curve at half-maximal effect; nearly all actives have a fitted effect of over 65% in size", "settings": "Potency: Plasmodium falciparum Dd2 proliferation inhibition", "procedure,_shortened": "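Dd2-infected erythrocytes (0.3% parasitemia, 2.5% hematocrit final) incubated with compound 72 h at 37 C, 5% CO2; lysed with saponin/Triton buffer containing SYBR Green I, incubated overnight in the dark, then read by fluorescence (485/535 nm). Normalized to 0.29 uM artemisinin and DMSO.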"}, "[6]": {"experiment": "qHTS Assay for Modulators of Human Peripheral Myelin Protein 22 (PMP22) Expression/Activity (AID 1967; active = well fitted curve in the direction sought with a large enough effect in the signal ratio; inconclusive = small, poorly fitted or top-dose-only effect, or effect the other way, or a change in a side signal; inactive = no such curve, though single readings can be large or run the other way; the % refers to the signal ratio)", "settings": "Cell-based PMP22 reporter, dual-color luciferase ratio, mouse Pmp22 promoter in mouse Schwann cells; activity change (ratio): at 115 µM (top of the series), 0% = compound-free control cells", "procedure,_shortened": "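Mouse MSC80 Schwann line, Pmp22 promoter–CBG68 reporter, EF-alpha–CBR internal control. 24h compound exposure, 37 °C/5% CO2, DMEM + 10% FBS. Readout: corrected green/red luminescence ratio, normalized to untreated cells; concentration-response curves fitted and classified.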"}, "[7]": {"molecular_target": "Ferritin light chain (Equus caballus) (UniProt P02791)", "sequence (P02791 2-175 limits assumed)": "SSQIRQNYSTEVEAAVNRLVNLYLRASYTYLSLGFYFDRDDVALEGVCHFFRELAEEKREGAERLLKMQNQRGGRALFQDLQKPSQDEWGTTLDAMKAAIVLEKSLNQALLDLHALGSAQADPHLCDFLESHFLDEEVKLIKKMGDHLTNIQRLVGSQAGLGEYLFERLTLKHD", "experiment": "qHTS Validation Assay for Identification of Novel General Anesthetics (AID 2323); also: % is scaled to controls: 0 for no effect and ±100 for the full control effect", "procedure,_shortened": "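10 uM horse-spleen apoferritin + 1-AMA (50% saturated, PBS); cpd pin-transferred, 10 min RT. Ex 380/Em 535 nm endpoint. Activity normalized between free 1-AMA and 1-AMA/apoferritin; 4-parameter Hill fit of concentration-response.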"}, "[8]": {"molecular_target": "RecQ-like DNA helicase BLM (Homo sapiens) (UniProt P54132)", "sequence (P54132 whole entry, looked up)": "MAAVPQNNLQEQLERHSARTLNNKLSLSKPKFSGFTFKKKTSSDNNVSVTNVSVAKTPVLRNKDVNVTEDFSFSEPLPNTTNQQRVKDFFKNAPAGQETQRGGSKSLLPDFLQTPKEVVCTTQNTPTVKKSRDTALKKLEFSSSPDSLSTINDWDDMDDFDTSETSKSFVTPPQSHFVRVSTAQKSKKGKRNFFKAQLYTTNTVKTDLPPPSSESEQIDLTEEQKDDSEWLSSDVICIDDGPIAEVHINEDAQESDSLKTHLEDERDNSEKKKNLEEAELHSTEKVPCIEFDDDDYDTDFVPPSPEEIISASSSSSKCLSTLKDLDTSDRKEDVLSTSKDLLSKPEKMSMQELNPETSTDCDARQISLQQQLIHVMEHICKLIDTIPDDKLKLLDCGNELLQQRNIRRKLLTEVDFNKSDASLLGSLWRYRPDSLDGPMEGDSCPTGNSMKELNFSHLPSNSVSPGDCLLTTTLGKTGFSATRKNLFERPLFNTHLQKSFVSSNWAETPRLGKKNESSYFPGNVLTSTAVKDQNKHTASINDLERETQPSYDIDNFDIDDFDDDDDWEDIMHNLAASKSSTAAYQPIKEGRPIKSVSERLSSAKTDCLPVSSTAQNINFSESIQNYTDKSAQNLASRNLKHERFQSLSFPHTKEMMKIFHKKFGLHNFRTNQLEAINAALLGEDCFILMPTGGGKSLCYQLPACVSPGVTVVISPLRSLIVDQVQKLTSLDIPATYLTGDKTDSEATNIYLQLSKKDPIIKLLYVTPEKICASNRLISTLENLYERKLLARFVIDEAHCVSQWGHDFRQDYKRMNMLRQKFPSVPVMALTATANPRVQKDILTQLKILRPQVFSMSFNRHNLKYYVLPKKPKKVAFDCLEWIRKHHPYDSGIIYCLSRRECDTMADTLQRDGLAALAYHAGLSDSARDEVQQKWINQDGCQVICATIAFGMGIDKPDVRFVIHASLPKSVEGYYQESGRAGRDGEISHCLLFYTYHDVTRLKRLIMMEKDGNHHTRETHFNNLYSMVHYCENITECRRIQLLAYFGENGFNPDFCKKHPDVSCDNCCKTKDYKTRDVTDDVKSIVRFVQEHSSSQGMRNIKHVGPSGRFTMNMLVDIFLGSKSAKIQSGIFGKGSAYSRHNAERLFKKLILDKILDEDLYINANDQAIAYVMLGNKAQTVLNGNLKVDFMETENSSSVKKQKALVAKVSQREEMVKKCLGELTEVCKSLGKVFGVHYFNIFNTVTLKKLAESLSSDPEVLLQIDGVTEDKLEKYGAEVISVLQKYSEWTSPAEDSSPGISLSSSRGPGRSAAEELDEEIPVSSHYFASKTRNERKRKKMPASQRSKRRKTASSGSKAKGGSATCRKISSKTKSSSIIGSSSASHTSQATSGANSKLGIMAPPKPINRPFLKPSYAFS", "experiment": "qHTS Validation Assay for Inhibitors of Bloom's syndrome helicase (BLM) (AID 2364); also: potency is read from the fitted curve at half-maximal effect;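 as to activity change, negative = inhibition: plate controls were DMSO vehicle for no effect and enzyme-free control for full effect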", "procedure,_shortened": "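50 nM BLM preincubated 15 min at room temperature with compound in pH 8.0 Tris buffer containing 2.5 ug/ml poly(dI-dC); started with 200 nM TAMRA/BHQ-2 forked duplex and 2 mM ATP (final). Unwinding read as TAMRA fluorescence increase, two reads 2 h apart.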"}, "[9]": {"molecular_target": "3',5'-cyclic-AMP phosphodiesterase 4B (Homo sapiens) (UniProt Q07343)", "sequence (Q07343 whole entry, looked up)": "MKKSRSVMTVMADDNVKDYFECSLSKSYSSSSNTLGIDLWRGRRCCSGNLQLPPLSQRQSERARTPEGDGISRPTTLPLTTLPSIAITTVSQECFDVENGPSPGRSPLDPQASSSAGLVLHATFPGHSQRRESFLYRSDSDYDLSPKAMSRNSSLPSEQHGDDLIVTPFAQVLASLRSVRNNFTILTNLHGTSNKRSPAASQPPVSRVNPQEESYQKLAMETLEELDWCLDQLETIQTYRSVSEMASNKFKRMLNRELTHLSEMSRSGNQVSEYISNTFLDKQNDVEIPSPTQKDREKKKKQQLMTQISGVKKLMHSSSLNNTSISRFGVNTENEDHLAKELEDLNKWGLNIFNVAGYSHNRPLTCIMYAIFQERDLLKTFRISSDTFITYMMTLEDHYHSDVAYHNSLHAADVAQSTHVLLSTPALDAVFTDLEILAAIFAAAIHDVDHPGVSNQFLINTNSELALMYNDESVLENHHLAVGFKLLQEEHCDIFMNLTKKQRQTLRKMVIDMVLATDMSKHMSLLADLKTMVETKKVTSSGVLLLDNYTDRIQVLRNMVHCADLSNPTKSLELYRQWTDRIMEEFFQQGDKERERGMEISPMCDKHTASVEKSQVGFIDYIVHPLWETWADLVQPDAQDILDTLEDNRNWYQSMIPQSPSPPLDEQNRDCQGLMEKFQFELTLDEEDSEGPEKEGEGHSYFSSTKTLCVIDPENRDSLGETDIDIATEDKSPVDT", "experiment": "qHTS Assay for Inhibitors of PDE-IV (AID 607; active = well fitted activation curve with a large enough effect in the main read-out, with a control signal flat, not every such curve was filed as active; inconclusive = small, poorly fitted or top-dose-only effect, or effect the other way, or a change in a side signal; also: potency is read from the fitted curve at half-maximal effect; as to activation (PDE inhibition): % of control where 0% means no effect)", "settings": "HEK293 ACTOne CNG channel cells, membrane potential fluorescence; activation (PDE inhibition): at 22.9 µM (top of the series)", "procedure,_shortened": "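Live HEK293 cells with a modified cyclic nucleotide-gated (CNG) channel report intracellular cAMP via membrane-potential dye fluorescence (ex 535/em 590 nm). Endogenous PDE-IV was targeted. Compounds were tested at up to 22.9 uM final; RO 20-1724 100 uM served as control.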"}, "[10]": {"experiment": "qHTS Assay for Identification of Small Molecule Agonists for Hypoxia Response Element Signaling Pathway (AID 914; active = well fitted activation curve with a large enough effect in the signal ratio, with a control signal flat, not every such curve was filed as active; inconclusive = small, poorly fitted or top-dose-only effect, or effect the other way, or a change in a side signal; the % refers to the signal ratio; also: potency is read from the fitted curve at half-maximal effect)", "settings": "ME-180 HRE-bla reporter, beta-lactamase ratio, CoCl2, 17 h; activation: stronger effect = higher value", "procedure,_shortened": "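Compounds in a titration series were added to ME-180 reporter cells alongside an EC50 level of CoCl2. After 17 hours, beta-lactamase activity was read as the 460nm/530nm emission ratio of CCF4, giving AC50 values.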"}, "[11]": {"molecular_target": "Dual specificity protein kinase CLK4 (Homo sapiens) (UniProt Q9HAZ1)", "sequence (Q9HAZ1 whole entry, looked up)": "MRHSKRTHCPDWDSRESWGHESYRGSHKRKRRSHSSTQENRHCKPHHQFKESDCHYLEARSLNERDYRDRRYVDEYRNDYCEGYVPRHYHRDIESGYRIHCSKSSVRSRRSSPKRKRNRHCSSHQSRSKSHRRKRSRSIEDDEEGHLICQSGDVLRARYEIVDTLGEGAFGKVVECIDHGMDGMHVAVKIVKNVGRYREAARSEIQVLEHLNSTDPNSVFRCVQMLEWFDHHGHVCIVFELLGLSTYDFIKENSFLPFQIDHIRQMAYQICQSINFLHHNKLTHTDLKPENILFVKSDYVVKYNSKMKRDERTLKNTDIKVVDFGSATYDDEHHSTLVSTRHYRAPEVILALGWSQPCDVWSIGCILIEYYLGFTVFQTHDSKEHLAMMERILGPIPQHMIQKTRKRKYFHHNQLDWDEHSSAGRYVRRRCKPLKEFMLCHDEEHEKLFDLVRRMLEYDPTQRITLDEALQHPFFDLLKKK", "experiment": "qHTS Assay for Inhibitors of CDC-like Kinase 4 (ADP-FP Assay) (AID 1795); also: potency is read from the fitted curve at half-maximal effect;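 also: recombinant human CLK4 phosphorylating RS repeat peptide at 1 µM ATP; nearly all actives have a fitted effect of over 60% in size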; as to activity change, negative = inhibition: % is scaled to controls: 0 for no effect and ±100 for the full control effect", "procedure,_shortened": "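FP readout: Orange Transcreener ADP2 tracer (4 nM) plus ADP antibody, read after 30 min at room temperature. Kinase step: 6.25 nM Clk4, 100 uM RS peptide, 1 uM ATP, pH 7.5, 1 h.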"}, "[12]": {"molecular_target": "M-phase phosphoprotein 8 (Homo sapiens) (UniProt Q99549)", "sequence (Q99549 whole entry, looked up)": "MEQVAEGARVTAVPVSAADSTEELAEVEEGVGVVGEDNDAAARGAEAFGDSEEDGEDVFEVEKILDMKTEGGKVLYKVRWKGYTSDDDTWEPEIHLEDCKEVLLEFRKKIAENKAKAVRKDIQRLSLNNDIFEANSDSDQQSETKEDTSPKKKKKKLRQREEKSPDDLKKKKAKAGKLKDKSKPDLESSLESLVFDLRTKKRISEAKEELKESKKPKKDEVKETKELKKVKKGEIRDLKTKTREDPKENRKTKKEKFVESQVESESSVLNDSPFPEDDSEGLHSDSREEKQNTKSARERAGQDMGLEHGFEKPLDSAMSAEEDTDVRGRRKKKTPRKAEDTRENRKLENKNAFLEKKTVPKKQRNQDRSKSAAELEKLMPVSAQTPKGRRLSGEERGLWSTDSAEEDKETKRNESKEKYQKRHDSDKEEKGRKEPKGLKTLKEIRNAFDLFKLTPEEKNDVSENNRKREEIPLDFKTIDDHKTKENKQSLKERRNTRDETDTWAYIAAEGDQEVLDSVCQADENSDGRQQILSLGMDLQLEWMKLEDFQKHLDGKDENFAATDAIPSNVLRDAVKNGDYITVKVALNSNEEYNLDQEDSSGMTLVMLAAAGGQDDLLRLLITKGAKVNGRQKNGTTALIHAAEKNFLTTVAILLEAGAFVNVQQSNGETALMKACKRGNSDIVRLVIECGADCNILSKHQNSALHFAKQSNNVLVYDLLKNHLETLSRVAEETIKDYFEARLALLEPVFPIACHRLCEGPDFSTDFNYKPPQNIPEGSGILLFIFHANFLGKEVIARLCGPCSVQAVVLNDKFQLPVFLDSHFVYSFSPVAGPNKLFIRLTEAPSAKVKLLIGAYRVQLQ", "experiment": "qHTS Validation Assay for Inhibitors for MPP8 Chromodomain Interactions with Methylated Histone Tails (AID 488949); also: top concentration of the series differs between compounds; % is scaled to controls: 0 for no effect and ±100 for the full control effect; nearly all actives have a fitted effect of over 55% in size", "procedure,_shortened": "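AlphaScreen read-out: streptavidin donor and nickel chelate acceptor beads (final 10 ug/mL), 30 min in the dark at RT. Complex of 50 nM MPP8 and 50 nM b-H3(1-18)K9me3 peptide had been exposed to compounds for 30 min beforehand.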"}, "[13]": {"experiment": "qHTS for differential inhibitors of proliferation of Plasmodium falciparum line HB3 (AID 1886);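 also: potency is read from the fitted curve at half-maximal effect; parasites grown with compound for 72 h before SYBR Green readout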", "settings": "Potency: Plasmodium falciparum HB3 proliferation inhibition"}, "[14]": {"experiment": "Validation screen for small molecules that induce DNA re-replication in MCF 10A normal breast cells (AID 463097); also: potency is read from the fitted curve at half-maximal effect; nearly all actives have a fitted effect of over 60% in size", "procedure,_shortened": "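250 MCF 10A cells/well; compound pin-transferred; 48 hr, 37 C, 5% CO2; Hoechst 40 min; imaged 405/500-530 nm. Hits = more high-intensity nuclei.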"}, "[15]": {"experiment": "Quantitative high throughput screen for delayed death inhibitors of the malarial parasite plastid, 96 hour incubation (AID 488745); also: potency is read from the fitted curve at half-maximal effect; nearly all actives have a fitted effect of over 70% in size", "procedure,_shortened": "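Infected erythrocytes were added to compound in Albumax-supplemented RPMI 1640 at 0.1% parasitemia and 2% hematocrit (final), incubated 96 h at 37 C under 5% CO2, then luciferase reagent was added and luminescence measured.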"}, "[16]": {"experiment": "Quantitative high throughput screen for delayed death inhibitors of the malarial parasite plastid, 48 hour incubation (AID 488752); also: potency is read from the fitted curve at half-maximal effect; nearly all actives have a fitted effect of over 65% in size", "procedure,_shortened": "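Readout is firefly luciferase luminescence from a reporter integrated into the parasite genome, with lower signal taken as inhibited growth. Infected red cells (0.1% parasitemia, 2% hematocrit final) are cultured with compound for one 48 h cycle at 37 C.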"}, "[17]": {"experiment": "Validation screen for small molecules that induce DNA re-replication in SW480 colon adenocarcinoma cells (AID 504364); also: potency is read from the fitted curve at half-maximal effect", "procedure,_shortened": "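250 cells/well; compound pinned in; 48 hr, 37 C, 5% CO2; Hoechst added, 40 min; nuclear fluorescence imaged, 405 ex / 500-530 em; re-replication scored as increase in high-intensity nuclei.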"}, "[18]": {"experiment": "qHTS for differential inhibitors of proliferation of Plasmodium falciparum line W2 (AID 1883);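 also: parasites grown with compound for 72 h before lysis and staining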", "settings": "Potency: Plasmodium falciparum W2 proliferation inhibition"}, "[19]": {"experiment": "Cytometry Cell-Based qHTS for Inhibitors of the mTORC1 Signaling Pathway in MEF cells (AID 2668);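 also: Tsc2-/- p53-/- mouse embryonic fibroblasts stably re-expressing wild-type Tsc2; percent cells positive for phospho-rpS6 Ser235/236 relative to propidium iodide stain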", "settings": "mTORC1 pathway readout; at 38.3 µM (top of the series)", "procedure,_shortened": "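Read-out: phospho-rpS6 Ser235/236 immunofluorescence normalized to propidium iodide intensity, scored as % active cells against a rapamycin (7.5 nM) threshold. Cells: Tsc2-/-, p53-/- MEFs stably expressing WT Tsc2, compound-treated 24 hrs at 37 degree Celsius.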"}, "[20]": {"molecular_target": "Thioredoxin reductase 1, cytoplasmic (Rattus norvegicus) (UniProt O89049)", "sequence (O89049 whole entry, looked up)": "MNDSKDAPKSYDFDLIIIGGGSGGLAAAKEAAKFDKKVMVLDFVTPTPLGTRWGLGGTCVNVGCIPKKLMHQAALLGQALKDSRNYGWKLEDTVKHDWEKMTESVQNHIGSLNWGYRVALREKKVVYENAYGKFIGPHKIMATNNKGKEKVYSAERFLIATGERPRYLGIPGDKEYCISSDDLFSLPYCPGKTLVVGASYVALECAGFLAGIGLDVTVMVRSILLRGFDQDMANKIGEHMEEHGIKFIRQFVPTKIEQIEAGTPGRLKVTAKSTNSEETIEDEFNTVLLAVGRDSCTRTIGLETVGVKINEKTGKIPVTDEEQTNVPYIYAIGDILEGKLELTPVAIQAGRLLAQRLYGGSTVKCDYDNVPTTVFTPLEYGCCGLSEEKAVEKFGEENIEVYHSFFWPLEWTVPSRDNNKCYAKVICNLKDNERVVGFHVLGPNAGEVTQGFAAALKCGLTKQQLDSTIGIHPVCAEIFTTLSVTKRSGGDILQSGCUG", "experiment": "qHTS Assay for Inhibitors of Mammalian Selenoprotein Thioredoxin Reductase 1 (TrxR1) (AID 488773);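 also: drop in NADPH fluorescence over an 8 min run after selenite addition; % is scaled to controls: 0 for no effect and ±100 for the full control effect; nearly all actives have a fitted effect of over 40% in size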", "settings": "Potency: inhibition", "procedure,_shortened": "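Steps: enzyme (90 nM) plus NADPH (400 uM final), 5 min at ~22 deg C; compound added, 15 min; selenite (400 uM final) added; fluorescence followed for 8 min. Concentration-response curves derived from the normalized delta values.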"}, "[21]": {"molecular_target": "ATPase family AAA domain-containing protein 5 (Homo sapiens) (UniProt Q96QE3)", "experiment": "Validation screen for small molecules that inhibit ELG1-dependent DNA repair in human embryonic kidney (HEK293T) cells expressing luciferase-tagged ELG1 (AID 493107); also: potency is read from the fitted curve at half-maximal effect; nearly all actives have a fitted effect of over 70% in size", "procedure,_shortened": "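Luminescence from ONE-Glo, developed 30 min at room temperature, served as read-out of ELG1-luciferase levels. Beforehand, reporter HEK293T cells received 5-fluorouridine plus test compound for 16 hr at 37 °C.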"}, "[22]": {"experiment": "NFAT Signaling Pathway (AID 444; active = well fitted curve in either direction with a large enough effect, not every such curve was filed as active; inconclusive = small, poorly fitted or top-dose-only effect, or another doubt;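 also: carbachol stimulus at about its EC50 of 1 µM final; % is scaled to controls: 0 for no effect and ±100 for the full control effect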)", "settings": "Jurkat NFAT-bla M1, carbachol, beta-lactamase ratio, 5 h; at 17.2 µM (top of the series) unless noted", "procedure,_shortened": "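Jurkat cells with NFAT-driven β-lactamase reporter and co-expressed M1 receptor, stimulated with carbachol (final 1 uM, ~EC50), compound titration, 5 h at 37 °C. CCF4 loaded 1 h at RT; 460/530 nm ratio gave %activity and AC50.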"}}, "note": "This list was built around the results that the source calls inconclusive (neither active nor inactive); the mix of calls is not that of the screen. For some of these results: Potencies beside an inconclusive call are fits to weak or partial responses and may not hold up. Active and inactive are the calls of the source. Unless noted, calls follow the shape of the dose curve; as a rule, active = well fitted curve in the direction sought with a large enough effect; inconclusive = small, poorly fitted or top-dose-only effect, or another doubt; inactive = no such curve, though single readings can be large; an effect the other way counts as inactive or inconclusive. Tags tell the direction and shape of the fitted curve or compound fluorescence and quenching.", "data": [{"smiles": "Nc1ncnc2c1nc(Sc1ccc(Cl)cc1)n2[C@H]1O[C@@H]2COP(=O)(O)O[C@H]2[C@@H]1O", "values": [{"measurement": "Potency", "setting": "[1]", "value": "inconclusive: 11.2 µM [inhibitor, single point]"}, {"measurement": "Potency", "setting": "[2]", "value": "active: 7.94 µM"}, {"measurement": "Potency", "setting": "[3]", "value": "inconclusive: 11.2 µM [inhibitor, partial curve]"}, {"measurement": "Potency", "setting": "[4]", "value": "inconclusive: 17.8 µM [inhibitor, single point]"}, {"measurement": "Potency", "setting": "[5]", "value": "inconclusive: 10 µM [inhibitor, single point]"}, {"measurement": "activity change (ratio)", "setting": "[6]", "value": "inconclusive: 60.1%"}, {"measurement": "Potency", "setting": "[7]", "value": "inactive"}, {"measurement": "Potency", "setting": "[8]", "value": "inconclusive: 0.112 µM [inhibitor, full curve]"}]}, {"smiles": "CC(=O)O[C@H]1C[C@@H]2CCC3C(CC[C@@]4(C)[C@H]3C[C@H]([N+]3(C)CCCCC3)[C@@H]4OC(C)=O)[C@@]2(C)C[C@@H]1[N+]1(C)CCCCC1", "note": "(some centres not stated)", "values": [{"measurement": "Potency", "setting": "[1]", "value": "inactive"}, {"measurement": "Potency", "setting": "[8]", "value": "inactive"}]}, {"smiles": "COc1ccc(-c2nc3cnc(N(C)C)nc3n(C)c2=O)cc1", "values": [{"measurement": "Potency", "setting": "[9]", "value": "inactive"}, {"measurement": "Potency", "setting": "[10]", "value": "inconclusive: 3.16 µM [activator, single point]"}, {"measurement": "Potency", "setting": "[11]", "value": "inactive"}]}, {"smiles": "NC(=O)C1=CN(C2OC(COP(=O)(O)OP(=O)(O)OC[C@H]3O[C@@H](n4cnc5c(N)ncnc54)[C@H](OP(=O)(O)O)[C@H]3O)C(O)C2O)C=CC1", "note": "(some centres not stated)", "values": [{"measurement": "Potency", "setting": "[2]", "value": "inactive"}, {"measurement": "Potency", "setting": "[8]", "value": "inactive"}, {"measurement": "Potency", "setting": "[12]", "value": "inactive"}]}, {"smiles": "C[C@H]1c2cccc(O)c2C(O)=C2C(=O)[C@]3(O)C(O)=C(C(N)=O)C(=O)C(N(C)C)[C@@H]3[C@@H](O)C21", "note": "(some centres not stated)", "values": [{"measurement": "Potency", "setting": "[1]", "value": "active: 4.47 µM"}, {"measurement": "Potency", "setting": "[3]", "value": "active: 1 µM"}, {"measurement": "Potency", "setting": "[4]", "value": "active: 11.2 µM"}, {"measurement": "Potency", "setting": "[13]", "value": "active: 6.31 µM"}, {"measurement": "Potency", "setting": "[8]", "value": "inactive"}, {"measurement": "Potency", "setting": "[14]", "value": "inconclusive: 25.1 µM [activator, single point]"}, {"measurement": "Potency", "setting": "[15]", "value": "active: 0.37 µM"}, {"measurement": "Potency", "setting": "[16]", "value": "active: 6.57 µM"}, {"measurement": "Potency", "setting": "[17]", "value": "inconclusive: 29.1 µM [activator, single point]"}]}, {"smiles": "O=C(O)[C@@H]1C[C@H](C(=O)O)N1", "values": [{"measurement": "Potency", "setting": "[2]", "value": "inactive"}, {"measurement": "Potency", "setting": "[18]", "value": "inactive"}, {"measurement": "Potency", "setting": "[8]", "value": "inconclusive: 0.0126 µM [inhibitor, full curve, poor fit]"}, {"measurement": "activity change, negative = inhibition", "setting": "[19]", "value": "inactive: 2.94%"}, {"measurement": "Potency", "setting": "[20]", "value": "inactive"}, {"measurement": "Potency", "setting": "[21]", "value": "inconclusive: 3.26 µM [activator, partial curve, poor fit]"}]}, {"smiles": "N#CCCn1c(=O)cnc2cnc(Oc3ccccc3)nc21", "values": [{"measurement": "Potency", "setting": "[9]", "value": "inconclusive: 10 µM [activator, single point]"}, {"measurement": "Potency", "setting": "[10]", "value": "inconclusive: 5.01 µM [activator, single point]"}, {"measurement": "Potency", "setting": "[11]", "value": "inactive"}]}, {"smiles": "Cc1noc(C)c1-c1ccc2ncnc(NCCN3CCOCC3)c2c1", "values": [{"measurement": "activity change, negative = inhibition", "setting": "[22]", "value": "inconclusive: -59.1% [inhibitor] [at 7.69 µM]"}, {"measurement": "Potency", "setting": "[10]", "value": "inconclusive: 3.98 µM [activator, single point]"}, {"measurement": "Potency", "setting": "[11]", "value": "active: 8.91 µM"}]}]}
